Measurements as given in the supplement of paper PMC11417369.
Some of the results follow.

test system: PfHDP1 homeodomain (GST-tagged); assay: gcPBM binding intensity (ln(normalized median fluorescence intensity)); higher = stronger DNA binding
How it was run: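 DNA-binding domains from P. falciparum, fused to GST and produced in E. coli, were put on an Agilent 4 × 180k double-stranded probe array for 1 h in 1× PBS holding 1% milk, 0.2 mg/ml BSA, 0.5% salmon testes DNA and 0.03% Triton X-100. Probes were primer-extended, 36 bp long and drawn from intergenic genomic regions, with negative controls included. After Alexa488 anti-GST antibody detection and a 488 nm scan, binding intensity was set as the highest Masliner-normalised natural-log median intensity across replicate spots of either probe orientation.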

In order of rising “gcPBM binding intensity (ln)” value:
1. TTTTACTATGATATTTATATATCTATATATGTATAT [XGTACX_negctrl_site499]  6.11
2. AAAAGTGTATGTAGGTGTACTTTTTATTTCTTCTTT [XGTACX_site8819]  6.16
3. TAAAATATATTTTTCTGTACACAAAAATATATTAAA [XGTACX_site2813]  6.24
4. TATATATTAATATATGCATGTTAATATATTATGAAA [TGCATGCA_site61]  6.26
5. TTTACATAAACTGGTAGTACATAATATGGCTTAAAA [XGTACX_site5002]  6.26
6. TAATAATAATTAAAATGAGATAAATAAATATATATA [TGCATGCA_negctrl_site322]  6.3
7. TATACTCATATATAAACACACAAAAAAAAAAAAAAA [CACACA_site5165]  6.37
8. TTTTTTTCATAATATACACACAAAAAAAAAAAAAAA [CACACA_site3224]  6.38
9. AAAAAAATATTCAAAGCATGCCTATTTACACATATT [TGCATGCA_site806]  6.4
10. TCTTATAATTTACCTACACACAGGAAATATATAAAT [CACACA_site294]  6.4
11. CAAAATTTATATAATAGTACACATGATCTTTTTTCT [XGTACX_site8956]  6.45
12. ACATTATATAAATATATACATATATATATATATAAA [GTGCAC_negctrl_site115]  6.46
13. TTTCCCTACCAAAAGTGTACTTATACATATTTTTAT [XGTACX_site5495]  6.46
14. CTATTAATGTACTCTACACACATATAAGAGGACATT [CACACA_site471]  6.46
15. TATAATATTATAGTTTGTACGAAAATAATATATTTA [XGTACX_site8673]  6.49
16. ACACAATGTAGTGTATAAATACAATAAAAGGTTGTA [TGCATGCA_negctrl_site251]  6.51
17. AAAAATAAAAATGAGTGTACTTTAAGCCCTACACTT [XGTACX_site828]  6.51
18. ACATCTATGTATAATACACACACTAATATATAATTG [CACACA_site5134]  6.62
19. TCTTTATATCATCTTTCTAAATATATATATATATAA [CACACA_negctrl_site77]  6.64
20. TTATATATTTATAAATGTACGTATAAGAATTTAATT [XGTACX_site8541]  6.68
21. TTAGCAACTATTACTACACACATTTGTATTTAATTT [CACACA_site4961]  6.69
22. TATTTATAAATATAAACACACAACATTATATGCATA [CACACA_site5748]  6.7
23. ACAGTATAAAAATAAGCACACACACTAATATATATT [CACACA_site8212]  6.71
24. ATAACAAAATAAAACACACACACAAATGTACCTATA [CACACA_site7190]  6.71
25. ACGATGTTCATCACTACACACACAAAGAAATATATA [CACACA_site8859]  6.77
26. TAAAGGCAAACAAACACACACACATATATACCTATA [CACACA_site7078]  6.77
27. TGATTATAGACACGCGCACACACAACAAAAAAAAAA [CACACA_site9179]  6.85
28. TCAGAAATATTACAAAGTACATGCAACGAAAATTTC [XGTACX_site5061]  6.9
29. TTTGATAAATGATACACACACAATATTTATAAAATA [CACACA_site7040]  6.93
30. ACATATTATTCTTCTTGTACACATAAATTTTATAAA [XGTACX_site299]  7.19
31. ATGACGTAGTGGTGTACACACATGGTACCTTTATTC [CACACA_site1547]  7.28
32. ATATAAGTTTTTTCTCAAAAAGTATAACGAGCATGA [CACACA_negctrl_site1375]  7.37
33. AAAAAAAAAAAAAAAGTGCATTAATAAATTTTAATA  7.56
34. TGGATTTTTTGATTTTTGTTTTTCTTCTTTCCCCCC [CACACA_negctrl_site1471]  7.59
35. AACCAAAATTTTTGTCGTACAAAAGAGCAAATGTAG [XGTACX_site6472]  7.72
36. TAAGTTTGTGCAAGTGGTACATATATATAAATTTAT [XGTACX_site5944]  8.56
37. TATATATATATATAATGTACGAATAGAAAAAAAAAA [XGTACX_site7231]  8.79
38. AATGTAAAACGAAATGCACACTATGGAAAATATAAA [CACACA_site4559]  8.85
39. GATACAAAATGGGGAACACACACATATATATATATA [CACACA_site9278]  9.09
40. ATATATATATATATGTGTACATATATATATCATATG [XGTACX_site3126]  9.23
41. TATATATATATATATATATATATTAATATATATTAC [XGTACX_negctrl_site103]  9.55
42. TCTATTATCCTTTGCACACAAAATAAATGAAAAAAT [CACACA_site3029]  9.75
43. TGATATTTAAATTTTGCACACGCATATGAAATTAGG [CACACA_site1034]  10.1
44. ATACGAAAATATTTTGCACACTATAATTATTCATAT [CACACA_site1765]  10.3
